SMILES strings stand for the structures. Among all 310,000 compounds or so, about 2,200 (0.71%) showed an effect of 50% or more. Effects have a minus sign here. The list shows a part of the results.

In this experiment the target is human ether-à-go-go-related gene (hERG) potassium channel (human, UniProt Q12809). In words: primary screen, population patch clamp on CHO cells stably expressing hERG.
Chain of human ether-à-go-go-related gene (hERG) potassium channel (Q12809 whole entry, looked up): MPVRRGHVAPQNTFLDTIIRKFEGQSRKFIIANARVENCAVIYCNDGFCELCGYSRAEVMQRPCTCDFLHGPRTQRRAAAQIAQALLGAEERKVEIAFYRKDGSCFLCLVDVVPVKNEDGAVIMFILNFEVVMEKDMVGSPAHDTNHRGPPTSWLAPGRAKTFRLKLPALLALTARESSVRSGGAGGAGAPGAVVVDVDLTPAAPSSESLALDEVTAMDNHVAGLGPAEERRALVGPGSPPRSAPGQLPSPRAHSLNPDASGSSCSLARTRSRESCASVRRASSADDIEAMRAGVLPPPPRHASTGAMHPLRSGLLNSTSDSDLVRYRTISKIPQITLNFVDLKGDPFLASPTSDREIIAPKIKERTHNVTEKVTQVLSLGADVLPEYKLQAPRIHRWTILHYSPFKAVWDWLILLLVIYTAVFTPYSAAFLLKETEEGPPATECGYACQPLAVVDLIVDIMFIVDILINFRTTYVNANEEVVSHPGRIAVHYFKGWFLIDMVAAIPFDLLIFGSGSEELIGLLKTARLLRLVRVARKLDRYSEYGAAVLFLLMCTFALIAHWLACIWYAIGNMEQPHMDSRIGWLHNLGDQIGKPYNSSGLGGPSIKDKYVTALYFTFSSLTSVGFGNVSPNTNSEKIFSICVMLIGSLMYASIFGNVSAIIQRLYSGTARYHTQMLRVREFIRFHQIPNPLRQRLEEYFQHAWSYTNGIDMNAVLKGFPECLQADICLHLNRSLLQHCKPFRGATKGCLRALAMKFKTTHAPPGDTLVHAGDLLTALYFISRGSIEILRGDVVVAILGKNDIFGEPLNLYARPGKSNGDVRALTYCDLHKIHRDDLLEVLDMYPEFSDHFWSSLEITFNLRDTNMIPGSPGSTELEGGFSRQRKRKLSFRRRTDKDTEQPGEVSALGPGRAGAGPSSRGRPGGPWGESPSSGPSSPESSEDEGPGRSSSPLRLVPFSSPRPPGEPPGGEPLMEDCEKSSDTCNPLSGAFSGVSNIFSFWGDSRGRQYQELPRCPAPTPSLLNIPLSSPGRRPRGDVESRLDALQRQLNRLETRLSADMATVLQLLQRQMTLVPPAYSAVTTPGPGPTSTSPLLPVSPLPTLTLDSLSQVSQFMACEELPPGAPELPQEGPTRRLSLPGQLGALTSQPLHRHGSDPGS
As for `CCN1CCN(CCC(=O)Nc2ccc(C)cc2)CC1.Cl`, the “hERG current change (%, negative = inhibition) at 1uM” value amounted to 1.39%.

Turning to `CNC(=O)CN(c1cc(C)ccc1OC)S(=O)(=O)c1ccc(C)cc1`, the “hERG current change (%, negative = inhibition) at 1uM” value is on record as -2.61%.

As for `CN(C)/C=C/C(=O)c1ccc(Br)cc1`, the “hERG current change (%, negative = inhibition) at 1uM” value is 12%.

With `Cc1ccc(Cn2ccc(=O)c(Cc3c(Cl)cccc3Cl)c2C)cc1`, the “hERG current change (%, negative = inhibition) at 1uM” value is listed as -1.17%.

`COc1ccc(NC(=S)NCCc2ccc(Cl)cc2)c(OC)c1`: the “hERG current change (%, negative = inhibition) at 1uM” value is given as 12.9%.

For `O=C(O)CCN1C(=O)C(=C2CCCCCC2)SC1=S`, the “hERG current change (%, negative = inhibition) at 1uM” value turned out to be 5.86%.

As for `CCOc1ccccc1Nc1nnc(SCc2ccc(C(=O)OC)o2)s1`, the “hERG current change (%, negative = inhibition) at 1uM” value was -8.76%.

Turning to `O=C1CCCC2(O)C1C(c1cccc(Br)c1)NC(=O)N2Cc1ccccc1` (centres unmarked), the “hERG current change (%, negative = inhibition) at 1uM” value stood at 8.78%.

`O=C(O)/C=C/c1ccc(OCCCF)cc1`: the “hERG current change (%, negative = inhibition) at 1uM” value worked out at 15%.

For the molecule `O=C(Nc1ccc(F)cc1)c1cc2c(s1)CCCC2`, the “hERG current change (%, negative = inhibition) at 1uM” value was determined as 13.3%.

For the molecule `O=C(CCC(=O)N/N=C/c1c[nH]c2ccccc12)NCc1ccccc1`, the “hERG current change (%, negative = inhibition) at 1uM” value amounted to 10.8%.

In the case of `O=C(Cn1cc([N+](=O)[O-])ccc1=O)NCC1COc2ccccc2O1` (centres unmarked), the “hERG current change (%, negative = inhibition) at 1uM” value was -0.498%.

For `COc1cccc(C2c3[nH]c4ccccc4c3C[C@H]3C(=O)N(C4CCN(Cc5ccccc5)CC4)CC(=O)N23)c1` (some centres unmarked), the “hERG current change (%, negative = inhibition) at 1uM” value is listed as -8.67%.

With `Cc1ccc(C(=O)NCC(=O)OCC(=O)c2ccc(Br)s2)cc1`, the “hERG current change (%, negative = inhibition) at 1uM” value was found to be 14.5%.

Regarding `O=C(Nc1ccccc1Cl)c1ccc(S(=O)(=O)N2CCOCC2)cc1`, the “hERG current change (%, negative = inhibition) at 1uM” value amounted to 8.25%.

In the case of `O=C(N1CCOCC1)N1CCCC(c2nc(-c3cccs3)no2)C1` (centres unmarked), the “hERG current change (%, negative = inhibition) at 1uM” value turned out to be 1%.

`Cc1ccc(-n2nnc3c(SCC(=O)NCC4CCCO4)ncnc32)cc1` (centres unmarked): the “hERG current change (%, negative = inhibition) at 1uM” value is -4.26%.

With `O=C(O)c1ccc(CSCc2ccco2)cc1`, the “hERG current change (%, negative = inhibition) at 1uM” value is 9.84%.

As for `CCOc1cccc2cc(C(=O)Nc3cc(C)on3)c(=O)oc12`, the “hERG current change (%, negative = inhibition) at 1uM” value came to 0.238%.

`COc1cc(C(=O)O/N=C2\C=CC(=O)C(C)=C2)cc(OC)c1OC`: the “hERG current change (%, negative = inhibition) at 1uM” value is listed as 14.6%.

For `CC(C#N)Sc1ncnc2sc3c(c12)CCC3` (centres unmarked), the “hERG current change (%, negative = inhibition) at 1uM” value came out at 9.99%.

As to `CC1CCN(C(=O)COC(=O)[C@H](C)NS(=O)(=O)/C=C/c2ccccc2)CC1`, the “hERG current change (%, negative = inhibition) at 1uM” value is on record as 1.96%.

As for `CN1c2ccccc2C(C)(C)C12CC(CCl)=NO2` (centres unmarked), the “hERG current change (%, negative = inhibition) at 1uM” value was found to be 11.1%.

Take `Cc1cc(C)c2c(N)c(C(=O)c3ccccc3)sc2n1`: the “hERG current change (%, negative = inhibition) at 1uM” value was 9.17%.

`Cc1cc(C(F)(F)F)nn1CC(=O)Nc1ccc2c(c1)OCO2`: the “hERG current change (%, negative = inhibition) at 1uM” value was determined as 8.52%.

In the case of `COc1ccc(CCn2nnnc2C(c2ccc(C)cc2)N2CCN(C)CC2)cc1OC.Cl` (centres unmarked), the “hERG current change (%, negative = inhibition) at 1uM” value is -0.689%.

Source of the values: publication PMC4336329 (PLoS ONE, 2015).
